{"source": "patent US20230279089A1", "about": "(GlaxoSmithKline, published 2023)", "experiment_in_all_cases": "cell-based or functional assay", "key": {"Mouse TLL1": {"molecular_target": "T1, Mouse TLL1 (mouse, UniProt Q62381 148-1013, limits assumed)", "T1 sequence (looked up)": "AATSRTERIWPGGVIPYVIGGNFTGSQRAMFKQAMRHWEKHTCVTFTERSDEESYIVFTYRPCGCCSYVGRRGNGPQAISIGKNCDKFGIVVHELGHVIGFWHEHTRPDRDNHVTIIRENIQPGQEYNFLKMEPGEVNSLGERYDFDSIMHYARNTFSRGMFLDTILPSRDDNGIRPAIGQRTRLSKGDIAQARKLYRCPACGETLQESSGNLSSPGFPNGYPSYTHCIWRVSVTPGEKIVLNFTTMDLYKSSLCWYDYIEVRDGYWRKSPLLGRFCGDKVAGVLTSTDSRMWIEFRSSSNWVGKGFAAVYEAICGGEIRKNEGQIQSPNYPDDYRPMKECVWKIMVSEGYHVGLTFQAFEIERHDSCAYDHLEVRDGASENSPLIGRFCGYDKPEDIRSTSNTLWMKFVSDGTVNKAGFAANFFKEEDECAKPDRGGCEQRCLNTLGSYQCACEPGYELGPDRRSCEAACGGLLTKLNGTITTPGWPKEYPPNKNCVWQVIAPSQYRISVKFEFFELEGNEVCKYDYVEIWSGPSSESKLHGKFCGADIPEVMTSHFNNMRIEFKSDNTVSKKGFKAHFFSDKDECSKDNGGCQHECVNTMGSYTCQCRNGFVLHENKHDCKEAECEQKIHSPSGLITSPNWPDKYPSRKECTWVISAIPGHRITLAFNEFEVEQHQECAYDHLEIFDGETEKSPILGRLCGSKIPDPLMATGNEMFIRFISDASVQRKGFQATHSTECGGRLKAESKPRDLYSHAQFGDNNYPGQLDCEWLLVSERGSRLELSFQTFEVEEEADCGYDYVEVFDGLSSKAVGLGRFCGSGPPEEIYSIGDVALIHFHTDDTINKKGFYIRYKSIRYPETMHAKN"}, "Human BMP1-1": {"molecular_target": "T2, Human BMP1-1 (human, UniProt P13497-2 121-730, limits assumed)", "T2 sequence (looked up)": "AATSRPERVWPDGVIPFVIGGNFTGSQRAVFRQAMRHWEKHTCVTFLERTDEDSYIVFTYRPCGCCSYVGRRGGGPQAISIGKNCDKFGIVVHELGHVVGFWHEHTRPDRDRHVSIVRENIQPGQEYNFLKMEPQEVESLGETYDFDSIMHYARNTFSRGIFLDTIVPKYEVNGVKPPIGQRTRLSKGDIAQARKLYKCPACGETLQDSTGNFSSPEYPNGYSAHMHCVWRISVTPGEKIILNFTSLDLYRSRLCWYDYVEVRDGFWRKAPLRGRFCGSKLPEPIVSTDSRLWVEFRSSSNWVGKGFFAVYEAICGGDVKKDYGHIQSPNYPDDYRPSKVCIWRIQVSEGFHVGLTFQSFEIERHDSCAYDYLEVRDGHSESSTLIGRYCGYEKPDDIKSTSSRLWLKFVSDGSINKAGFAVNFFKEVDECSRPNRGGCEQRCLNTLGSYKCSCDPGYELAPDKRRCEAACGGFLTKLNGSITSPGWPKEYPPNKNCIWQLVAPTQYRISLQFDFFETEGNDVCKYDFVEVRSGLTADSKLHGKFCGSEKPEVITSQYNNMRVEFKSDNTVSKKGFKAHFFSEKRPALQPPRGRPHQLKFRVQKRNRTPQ"}, "Human TLL1": {"molecular_target": "T3, Human TLL1 (human, UniProt O43897 148-1013, limits assumed)", "T3 sequence (looked up)": "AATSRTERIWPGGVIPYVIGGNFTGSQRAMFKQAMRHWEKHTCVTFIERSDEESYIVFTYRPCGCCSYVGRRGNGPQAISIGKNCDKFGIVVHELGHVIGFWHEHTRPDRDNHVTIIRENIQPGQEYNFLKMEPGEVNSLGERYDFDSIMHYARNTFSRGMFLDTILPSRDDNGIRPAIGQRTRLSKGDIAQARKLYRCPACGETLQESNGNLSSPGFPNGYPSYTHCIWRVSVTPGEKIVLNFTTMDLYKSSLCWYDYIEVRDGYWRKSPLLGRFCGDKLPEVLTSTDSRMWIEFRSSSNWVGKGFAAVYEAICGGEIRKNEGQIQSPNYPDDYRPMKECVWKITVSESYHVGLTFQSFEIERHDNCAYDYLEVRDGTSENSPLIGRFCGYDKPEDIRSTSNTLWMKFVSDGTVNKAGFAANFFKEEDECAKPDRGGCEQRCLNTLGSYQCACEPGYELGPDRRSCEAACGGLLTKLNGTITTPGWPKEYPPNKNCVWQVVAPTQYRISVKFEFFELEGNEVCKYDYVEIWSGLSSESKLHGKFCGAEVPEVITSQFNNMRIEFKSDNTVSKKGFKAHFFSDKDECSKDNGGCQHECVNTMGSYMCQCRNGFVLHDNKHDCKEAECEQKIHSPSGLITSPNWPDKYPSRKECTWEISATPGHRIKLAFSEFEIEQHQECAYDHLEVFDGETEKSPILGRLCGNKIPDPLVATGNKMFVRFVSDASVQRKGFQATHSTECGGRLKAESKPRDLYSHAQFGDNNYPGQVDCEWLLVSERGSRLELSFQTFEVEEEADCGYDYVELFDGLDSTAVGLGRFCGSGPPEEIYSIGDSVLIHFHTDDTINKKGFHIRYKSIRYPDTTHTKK"}}}
{"binder": "13Y039-3E07-2944 (antibody, human IgG1, kappa, Fully human IgG1 LAGA, kappa; HEK expressed; also called HEK-expressed 13Y039-3E07-2944) heavy: QVQLQQWGAGLLKPSETLSLTCAVYGGSFFGDYWSWIRQPPGKGLEWIGEIDWSGATNYNPSLKSRVTISVDTSKNQFSLKLSSVTAADTAVYYCARGGSKELSFDIWGQGTMVTVSS[gap - human IgG1 constant region with L235A G237A (EU numbers)] light: DIQMTQSPSSLSASVGDRVTITCQASQDIANYLNWYQQKPGKAPKLLIYDASNLETGVPSRFSGSGSGTDFTFTISSLQPEDIATYYCQQADTLPFTFGGGTKVEIKRTVAAPSVFIFPPSDEQLKSGTASVVCLLNNFYPREAKVQWKVDNALQSGNSQESVTEQDSKDSTYSLSSTLTLSKADYEKHKVYACEVTHQGLSSPVTKSFNRGEC", "values": [{"measurement": "IC50, FRET enzyme activity, 800 pM biotinylated mTLL-1", "setting": "Mouse TLL1", "result": 0.14, "unit": "nM"}, {"measurement": "IC50, FRET enzyme activity, 62.5 pM huBMP1", "setting": "Human BMP1-1", "result": 0.4, "unit": "nM"}, {"measurement": "IC50, FRET enzyme activity, 250 pM biotinylated huTLL-1", "setting": "Human TLL1", "result": 0.14, "unit": "nM"}]}
